Data taken from patent publication US20220251222A1 (Johns Hopkins, published 2022).

Tests used:
[1] = target: T1, IL-6R on IL-6-responsive HepG2 cells (UniProt P08887 20-468, limits assumed); assay: cell-based or functional assay
T1 sequence (looked up): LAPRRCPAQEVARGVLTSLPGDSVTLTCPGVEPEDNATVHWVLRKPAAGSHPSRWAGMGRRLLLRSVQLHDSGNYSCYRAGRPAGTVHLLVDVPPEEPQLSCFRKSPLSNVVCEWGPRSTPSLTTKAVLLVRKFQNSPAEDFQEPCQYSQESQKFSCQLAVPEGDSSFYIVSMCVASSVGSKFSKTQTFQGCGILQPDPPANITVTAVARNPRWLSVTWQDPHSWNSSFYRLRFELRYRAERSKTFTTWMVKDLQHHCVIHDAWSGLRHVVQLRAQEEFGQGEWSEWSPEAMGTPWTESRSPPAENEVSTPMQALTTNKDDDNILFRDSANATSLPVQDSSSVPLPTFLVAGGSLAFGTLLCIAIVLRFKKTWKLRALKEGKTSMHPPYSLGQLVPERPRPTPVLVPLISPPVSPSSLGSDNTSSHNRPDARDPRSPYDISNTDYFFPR

[2] = target: T2, IL-8RB expressed on lentivirally transduced HEK 293T cells (UniProt P25025 1-360, limits assumed); assay: competition with 400 nM His-tagged IL-8 on IL-6Rα-/IL-8R+ HEK 293T cells, flow cytometry
T2 construct: whole, on cells; also called IL-8R^+ cells; IL-6Rα^-/IL-8R^+ HEK 293T cells
T2 sequence (looked up): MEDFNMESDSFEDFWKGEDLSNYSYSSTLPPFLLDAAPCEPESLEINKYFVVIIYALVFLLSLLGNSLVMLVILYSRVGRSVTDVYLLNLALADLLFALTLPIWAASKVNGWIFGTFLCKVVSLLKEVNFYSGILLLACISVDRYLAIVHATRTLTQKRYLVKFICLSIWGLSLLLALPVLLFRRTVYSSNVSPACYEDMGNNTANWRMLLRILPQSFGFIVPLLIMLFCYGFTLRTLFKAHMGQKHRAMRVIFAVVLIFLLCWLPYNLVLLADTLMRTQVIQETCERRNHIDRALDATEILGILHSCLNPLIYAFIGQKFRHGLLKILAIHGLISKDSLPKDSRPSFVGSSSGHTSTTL
Experimental: (§1) IL-6Rα⁺/IL-8R⁻ and IL-6Rα⁻/IL-8R⁺ HEK 293T cells were cultured as previously described, and were trypsinized, resuspended in PBSA, and aliquoted into 96-well plates (2×10⁵ cells per well). IL-6Rα⁺/IL-8R⁻ 293T cells were incubated with titrations of various monoclonal or bispecific antibodies in the presence of saturating concentration of biotinylated IL-6 (100 nM) (Acro Biosystem, cat #: IL6-H8218-25UG) for 2 hr at 4° C. with rotation. Cells were then washed and incubated with 1:200 dilution of Alexa Fluor 647-conjugated streptavidin (Fisher Scientific, cat #: S21374) in PBSA for 15 min at 4° C. After a final wash, cells were resuspended in PBSA and analyzed on a CytoFLEX flow cytometer (Beckman Coulter). Curves were fitted to a first-order logistic model and IC₅₀ values were calculated using GraphPad Prism data analysis software. Mean fluorescence intensity (MFI) of unstimulated cells was subtracted. Similarly, IL-6Rα⁻/IL-8R⁺ 293T cells were incubated with titrations of various monoclonal or bispecific antibodies with saturating concentration of His-tagged IL-8 (400 nM) (Sino Biological, cat #: 10098-H08Y-100) for 2 hr at 4° C. with rotation. […] After a final wash, cells were resuspended in PBSA and analyzed on a CytoFLEX flow cytometer (Beckman Coulter). Curves were fitted to a first-order logistic model and IC₅₀ values were calculated using GraphPad Prism data analysis software. […]

[3] = target: T3, human IL-6Rα extracellular domain (ECD), residues 89-303 of the mature protein, with C-terminal biotin … (human, UniProt P08887 108-322, biotinylated with BirA ligase on the biotin acceptor peptide); assay: competition: antibody against 300 nM biotinylated IL-6Rα ECD binding to IL-6-displaying yeast, flow cytometry
T3 construct: range 89-303; The range 89-303 counts on the mature protein, not on the precursor; Any linkers between the ECD, BAP and His tag are not described; also called IL-6Rα ECD; recombinant IL-6Rα
T3 sequence: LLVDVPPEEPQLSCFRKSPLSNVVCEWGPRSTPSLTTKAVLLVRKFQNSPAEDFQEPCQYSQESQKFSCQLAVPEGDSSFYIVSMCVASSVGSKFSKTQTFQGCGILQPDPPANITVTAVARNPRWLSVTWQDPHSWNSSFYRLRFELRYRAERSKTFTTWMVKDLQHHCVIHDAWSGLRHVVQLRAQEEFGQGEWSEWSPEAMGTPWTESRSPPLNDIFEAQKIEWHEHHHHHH
Experimental: Approximately 1×10⁵ human IL-6-displaying yeast per well were plated in a 96-well plate and washed with PBSA. Yeast cells were incubated with saturating concentrations of biotinylated human IL-6Rα (300 nM) and serial dilutions of unlabeled competitor antibody (either the anti-IL-6R antibody tocilizumab, the anti-IL-8R antibody 10H2, BS1, or BS2) in PBSA for 2 hours at room temperature. Cells were then washed and stained with a 1:200 dilution of Alexa647-conjugated streptavidin (Thermo) in PBSA for 15 min at 4° C. Cells were washed again and assessed for human IL-6Rα binding on a CytoFLEX flow cytometer (Beckman Coulter). Background-subtracted fluorescent signal as a fraction of receptor subunit binding in the absence of competitor antibody was plotted. Curves were fitted to a first order logistic model and half maximal inhibitory concentrations (IC₅₀s) were computed using GraphPad Prism. Assays were performed in triplicate and repeated two times with consistent results.
Tocilizumab is known to compete with IL-6 for IL-6Rα engagement. Thus, bispecific binding agents containing the tocilizumab variable regions (BS1 and BS2) were also expected to obstruct cytokine binding. […] However, tocilizumab (IC₅₀=59 nM), BS1 (IC₅₀=190 nM), and BS2 (IC₅₀=78 nM) all inhibited IL-6/IL-6Rα binding.

[4] = target: T4, IL-6Rα expressed on lentivirally transduced HEK 293T cells (UniProt P08887 20-468, limits assumed); assay: competition with 100 nM biotinylated IL-6 on IL-6Rα+/IL-8R- HEK 293T cells, flow cytometry
T4 construct: whole, on cells; also called IL-6Rα^+ cells; IL-6Rα^+/IL-8R^- HEK 293T cells
T4 sequence (looked up): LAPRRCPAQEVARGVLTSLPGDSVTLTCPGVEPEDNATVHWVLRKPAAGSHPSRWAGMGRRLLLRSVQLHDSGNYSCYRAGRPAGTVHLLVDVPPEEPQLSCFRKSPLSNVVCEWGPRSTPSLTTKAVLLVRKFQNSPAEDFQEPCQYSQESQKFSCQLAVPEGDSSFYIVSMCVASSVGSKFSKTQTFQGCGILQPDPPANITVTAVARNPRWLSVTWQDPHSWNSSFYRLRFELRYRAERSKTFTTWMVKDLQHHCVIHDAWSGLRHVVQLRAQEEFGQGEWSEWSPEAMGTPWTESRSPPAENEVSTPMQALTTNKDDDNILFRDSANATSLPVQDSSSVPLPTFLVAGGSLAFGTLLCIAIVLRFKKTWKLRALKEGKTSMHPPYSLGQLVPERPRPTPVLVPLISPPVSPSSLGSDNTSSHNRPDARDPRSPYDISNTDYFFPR
Experimental: as §1

B1: BS1 bispecific binding agent (knobs-in-holes, single-chain Fab; tocilizumab arm and 10H2 arm) (bispecific antibody, human IgG1, kappa)
chain 1: AGSDIQMTQSPSSLSASVGDRVTITCRASQDISSYLNWYQQKPGKAPKLLIYYTSRLHSGVPSRFSGSGSGTDFTFTISSLQPEDIATYYCQQGNTLPYTFGQGTKVEIKRTVAAPSVFIFPPSDEQLKSGTASVVCLLNNFYPREAKVQWKVDNALQSGNSQESVTEQDSKDSTYSLSSTLTLSKADYEKHKVYACEVTHQGLSSPVTKSFNRGECGGSGGSSGSGSGSTGTSSSGTGTSAGTTGTSASTSGSGSGEVQLQESGPGLVRPSQTLSLTCTVSGYSITSDHAWSWVRQPPGRGLEWIGYISYSGITTYNPSLKSRVTMLRDTSKNQFSLRLSSVTAADTAVYYCARSLARTTAMDYWGQGSLVTVSSASTKGPSVFPLAPSSKSTSGGTAALGCLVKDYFPEPVTVSWNSGALTSGVHTFPAVLQSSGLYSLSSVVTVPSSSLGTQTYICNVNHKPSNTKVDKKVEPKSCDKTHTCPPCPAPELLGGPSVFLFPPKPKDTLMISRTPEVTCVVVDVSHEDPEVKFNWYVDGVEVHNAKTKPREEQYNSTYRVVSVLTVLHQDWLNGKEYKCKVSNKALPAPIEKTISKAKGQPREPQVYTLPPSREEMTKNQVSLSCAVKGFYPSDIAVEWESNGQPENNYKTTPPVLDSDGSFFLVSKLTVDKSRWQQGNVFSCSVMHEGLHNHYTQKSLSLSPGK
chain 2: AGSQAVVTQESALTTSPGETVTLTCRSSTGAVTTSNYANWVQEKPDHLFTGLIGGTNNRPPGVPARFSGSLIGDKAALTITGAQIEDEAIYFCALWYSNHLVFGGGTKLTVLRTVAAPSVFIFPPSDEQLKSGTASVVCLLNNFYPREAKVQWKVDNALQSGNSQESVTEQDSKDSTYSLSSTLTLSKADYEKHKVYACEVTHQGLSSPVTKSFNRGECGGSGGSSGSGSGSTGTSSSGTGTSAGTTGTSASTSGSGSGEVQLVETGGRLVQPKGSLKLSCAVSGITFKTNAMNWVRQAPGKGLEWVARIRTKSYNYATYYADSVKDRFTISRDDSQSILYLQMNNLKTEDTAMYHCVREGRWGQGTLVTVSAASTKGPSVFPLAPSSKSTSGGTAALGCLVKDYFPEPVTVSWNSGALTSGVHTFPAVLQSSGLYSLSSVVTVPSSSLGTQTYICNVNHKPSNTKVDKKV[human IgG1 Fc with changes not written out]
notes: Heterodimer of two single-chain Fab-Fc polypeptides, monovalent for each target
**Q.** Which “inhibition of IL-6-induced STAT3 phosphorylation in HepG2 cells (IC50)” value [1] does the source give for B1 here?
**A.** Its value is 110 nM.

**Q.** What about the IC50 [2] of the same binder?
**A.** Its IC50 is 99 nM.

**Q.** What about the IC50 [3] of the same binder?
**A.** The IC50 was 190 nM.

**Q.** And the IC50 [4]?
**A.** The IC50 was 120 nM.
